# Measurements: the supplement of paper PMC4967469
# The IC50 comes from the fitted curve, where viability falls to half of the control; a fit beyond the top or the lowest dose is shown as a bound at that dose. AUC sums up the same curve from the lowest dose to the 256-fold higher top dose; the more sensitive the line, the further below 1. Any top dose called inferred is not printed in the source and was worked back from the curve model. For some assays here: An entry number marks a drug with two screens in the source, which often give different values.
# Compound: COc1cc(-c2nn([C@H]3CC[C@H](N4CCN(C(C)=O)CC4)CC3)c3ncnc(N)c23)ccc1NC(=O)c1cc2ccccc2n1C [A-770041]
# Test: Viability of human cancer cell lines after 72 h of drug (GDSC screen)
# Details: top dose 5.12 µM; top dose inferred
# Method: (§1)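 Human cancer cell lines in 384-well plates, medium with 10% serum, drug for 72 h over a 256-fold dose range (nine 2-fold or five 4-fold steps up to the top dose). Adherent lines were fixed and stained with the nucleic acid dye Syto60, suspension lines read with resazurin; signal relative to control wells, capped at 0 and 100%. One two-parameter sigmoid per drug and line, fitted in a mixed model over all curves with the slope shared within a line.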
Cell Line,AUC,IC50 [µM]
"A3-KAW (B-cell lymphoma, suspension)",0.989,> 5.12
"A4-Fuk (B-cell lymphoma, suspension)",0.982,> 5.12
"ARH-77 (myeloma, suspension)",0.848,3.58
"BB30-HNC (head and neck, adherent)",0.65,0.827
"BB49-HNC (head and neck, adherent)",0.905,> 5.12
"BC-1 (B-cell lymphoma, suspension)",0.977,> 5.12
"BE2-M17 (neuroblastoma, adherent)",0.987,> 5.12
"BV-173 (chronic myeloid leukaemia, suspension)",0.533,0.389
"CA46 (Burkitt lymphoma, suspension)",0.916,> 5.12
"CCRF-CEM (lymphoblastic leukaemia, suspension)",0.966,> 5.12
"CESS (acute myeloid leukaemia, suspension)",0.954,> 5.12
"CHP-126 (neuroblastoma, suspension)",0.905,> 5.12
"CMK (acute myeloid leukaemia, suspension)",0.99,> 5.12
"COLO-320-HSR (large intestine, suspension)",0.945,> 5.12
"COLO-824 (breast, adherent)",0.939,> 5.12
"COR-L88 (small cell lung carcinoma, adherent)",0.937,> 5.12
"CP66-MEL (melanoma, adherent)",0.972,> 5.12
"GA-10 (Burkitt lymphoma, suspension)",0.104,0.0224
"HCC1187 (breast, suspension)",0.961,> 5.12
"IM-9 (myeloma, suspension)",0.992,> 5.12
"KARPAS-231 (B-cell leukaemia, suspension)",0.385,0.167
"SK-ES-1 (Ewing sarcoma, semi-adherent)",0.982,> 5.12
"U-87-MG (glioma, adherent)",0.945,> 5.12

# Compound: O=C1NC(=O)c2c1c(-c1ccccc1Cl)cc1[nH]c3ccc(O)cc3c21 [Wee1 inhibitor 681640]
# Test: as above
# Details: top dose 2 µM; top dose inferred
# Method: as §1
Cell Line,AUC,IC50 [µM]
"A3-KAW (B-cell lymphoma, suspension)",0.993,> 2
"A4-Fuk (B-cell lymphoma, suspension)",0.924,> 2
"ARH-77 (myeloma, suspension)",0.985,> 2
"BB30-HNC (head and neck, adherent)",0.882,> 2
"BB49-HNC (head and neck, adherent)",0.945,> 2
"BC-1 (B-cell lymphoma, suspension)",0.988,> 2
"BE2-M17 (neuroblastoma, adherent)",0.931,> 2
"BV-173 (chronic myeloid leukaemia, suspension)",0.856,1.32
"CA46 (Burkitt lymphoma, suspension)",0.985,> 2
"CCRF-CEM (lymphoblastic leukaemia, suspension)",0.932,> 2
"CESS (acute myeloid leukaemia, suspension)",0.989,> 2
"CHP-126 (neuroblastoma, suspension)",0.955,> 2
"CMK (acute myeloid leukaemia, suspension)",0.962,> 2
"COLO-320-HSR (large intestine, suspension)",0.989,> 2
"COLO-824 (breast, adherent)",0.984,> 2
"COR-L88 (small cell lung carcinoma, adherent)",0.979,> 2
"CP66-MEL (melanoma, adherent)",0.986,> 2
"GA-10 (Burkitt lymphoma, suspension)",0.948,> 2
"HCC1187 (breast, suspension)",0.978,> 2
"IM-9 (myeloma, suspension)",0.992,> 2
"KARPAS-231 (B-cell leukaemia, suspension)",0.933,> 2
"SK-ES-1 (Ewing sarcoma, semi-adherent)",0.962,> 2
"U-87-MG (glioma, adherent)",0.917,> 2

# Compound: Cc1cccc(-c2[nH]c(C(C)(C)C)nc2-c2ccc3nccnc3c2)n1 [SB-525334]
# Test: as above
# Details: top dose 20 µM; top dose inferred
# Method: as §1
Cell Line,AUC,IC50 [µM]
"A3-KAW (B-cell lymphoma, suspension)",0.983,> 20
"A4-Fuk (B-cell lymphoma, suspension)",0.98,> 20
"ARH-77 (myeloma, suspension)",0.95,> 20
"BB30-HNC (head and neck, adherent)",0.984,> 20
"BB49-HNC (head and neck, adherent)",0.978,> 20
"BC-1 (B-cell lymphoma, suspension)",0.968,> 20
"BE2-M17 (neuroblastoma, adherent)",0.943,> 20
"BV-173 (chronic myeloid leukaemia, suspension)",0.986,> 20
"CA46 (Burkitt lymphoma, suspension)",0.88,> 20
"CCRF-CEM (lymphoblastic leukaemia, suspension)",0.987,> 20
"CESS (acute myeloid leukaemia, suspension)",0.949,> 20
"CHP-126 (neuroblastoma, suspension)",0.824,12.3
"CMK (acute myeloid leukaemia, suspension)",0.951,> 20
"COLO-320-HSR (large intestine, suspension)",0.95,> 20
"COLO-824 (breast, adherent)",0.865,18.3
"COR-L88 (small cell lung carcinoma, adherent)",0.94,> 20
"CP66-MEL (melanoma, adherent)",0.585,2.21
"HCC1187 (breast, suspension)",0.943,> 20
"SK-ES-1 (Ewing sarcoma, semi-adherent)",0.761,7.55
"U-87-MG (glioma, adherent)",0.969,> 20

# Compound: NC(=O)c1ccc(N(C(N)=O)c2c(F)cccc2F)nc1-c1ccc(F)cc1F [VX-702]
# Test: as above
# Details: top dose 2 µM; top dose inferred
# Method: as §1
Cell Line,AUC,IC50 [µM]
"A3-KAW (B-cell lymphoma, suspension)",0.992,> 2
"A4-Fuk (B-cell lymphoma, suspension)",0.825,1.27
"ARH-77 (myeloma, suspension)",0.974,> 2
"BB30-HNC (head and neck, adherent)",0.986,> 2
"BB49-HNC (head and neck, adherent)",0.978,> 2
"BC-1 (B-cell lymphoma, suspension)",0.99,> 2
"BE2-M17 (neuroblastoma, adherent)",0.985,> 2
"BV-173 (chronic myeloid leukaemia, suspension)",0.921,> 2
"CA46 (Burkitt lymphoma, suspension)",0.978,> 2
"CCRF-CEM (lymphoblastic leukaemia, suspension)",0.973,> 2
"CESS (acute myeloid leukaemia, suspension)",0.991,> 2
"CHP-126 (neuroblastoma, suspension)",0.97,> 2
"CMK (acute myeloid leukaemia, suspension)",0.99,> 2
"COLO-320-HSR (large intestine, suspension)",0.99,> 2
"COLO-824 (breast, adherent)",0.986,> 2
"COR-L88 (small cell lung carcinoma, adherent)",0.971,> 2
"CP66-MEL (melanoma, adherent)",0.986,> 2
"GA-10 (Burkitt lymphoma, suspension)",0.97,> 2
"HCC1187 (breast, suspension)",0.976,> 2
"IM-9 (myeloma, suspension)",0.991,> 2
"KARPAS-231 (B-cell leukaemia, suspension)",0.973,> 2
"SK-ES-1 (Ewing sarcoma, semi-adherent)",0.942,> 2
"U-87-MG (glioma, adherent)",0.978,> 2

# Compound: O=C(c1cc(Cc2n[nH]c(=O)c3ccccc23)ccc1F)N1CCN(C(=O)C2CC2)CC1 [Olaparib]
# Test: as above
# Details: top dose 5 µM; screen: GDSC drug entry 1017; top dose inferred
# Method: as §1
Cell Line,AUC,IC50 [µM]
"A3-KAW (B-cell lymphoma, suspension)",0.985,> 5
"A4-Fuk (B-cell lymphoma, suspension)",0.985,> 5
"ARH-77 (myeloma, suspension)",0.969,> 5
"BB30-HNC (head and neck, adherent)",0.926,> 5
"BB49-HNC (head and neck, adherent)",0.977,> 5
"BC-1 (B-cell lymphoma, suspension)",0.98,> 5
"BE2-M17 (neuroblastoma, adherent)",0.987,> 5
"BV-173 (chronic myeloid leukaemia, suspension)",0.747,1.44
"CA46 (Burkitt lymphoma, suspension)",0.983,> 5
"CCRF-CEM (lymphoblastic leukaemia, suspension)",0.923,> 5
"CESS (acute myeloid leukaemia, suspension)",0.986,> 5
"CHP-126 (neuroblastoma, suspension)",0.987,> 5
"CMK (acute myeloid leukaemia, suspension)",0.977,> 5
"COLO-320-HSR (large intestine, suspension)",0.99,> 5
"COLO-824 (breast, adherent)",0.988,> 5
"COR-L88 (small cell lung carcinoma, adherent)",0.983,> 5
"CP66-MEL (melanoma, adherent)",0.983,> 5
"GA-10 (Burkitt lymphoma, suspension)",0.989,> 5
"IM-9 (myeloma, suspension)",0.99,> 5
"KARPAS-231 (B-cell leukaemia, suspension)",0.932,> 5

# Same assay, conditions: top dose 10 µM; screen: GDSC drug entry 1495
Cell Line,AUC,IC50 [µM]
"A3-KAW (B-cell lymphoma, suspension)",0.934,> 10
"A4-Fuk (B-cell lymphoma, suspension)",0.981,> 10
"ARH-77 (myeloma, suspension)",0.972,> 10
"BB30-HNC (head and neck, adherent)",0.874,9.4
"BB49-HNC (head and neck, adherent)",0.852,> 10
"BC-1 (B-cell lymphoma, suspension)",0.981,> 10
"BE2-M17 (neuroblastoma, adherent)",0.984,> 10
"BV-173 (chronic myeloid leukaemia, suspension)",0.798,4.13
"CA46 (Burkitt lymphoma, suspension)",0.975,> 10
"CCRF-CEM (lymphoblastic leukaemia, suspension)",0.954,> 10
"CESS (acute myeloid leukaemia, suspension)",0.943,> 10
"CHP-126 (neuroblastoma, suspension)",0.948,> 10
"CMK (acute myeloid leukaemia, suspension)",0.972,> 10
"COLO-320-HSR (large intestine, suspension)",0.985,> 10
"COLO-824 (breast, adherent)",0.982,> 10
"COR-L88 (small cell lung carcinoma, adherent)",0.969,> 10
"CP66-MEL (melanoma, adherent)",0.96,> 10
"GA-10 (Burkitt lymphoma, suspension)",0.991,> 10
"IM-9 (myeloma, suspension)",0.962,> 10
"KARPAS-231 (B-cell leukaemia, suspension)",0.974,> 10

# Compound: COc1cc(N2CCN(C)CC2)ccc1Nc1ncc2c(n1)N(C)c1ccccc1C(=O)N2C [XMD8-85]
# Test: as above
# Details: top dose 8 µM; top dose inferred
# Method: as §1
Cell Line,AUC,IC50 [µM]
"A3-KAW (B-cell lymphoma, suspension)",0.741,2.04
"A4-Fuk (B-cell lymphoma, suspension)",0.817,4.73
"ARH-77 (myeloma, suspension)",0.9,> 8
"BB30-HNC (head and neck, adherent)",0.808,4.05
